Test results published in the supplement of paper PMC11417369.
± gives the standard deviation of the averaged measurements. The list shows a part of the results.

system: PfAP2-I AP2 domain 3 (GST-tagged); experiment: gcPBM binding intensity (ln(normalized median fluorescence intensity)); higher = stronger DNA binding
Method in brief: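 Using an Agilent 4 × 180k array, primer-extended double-stranded 36-bp intergenic genomic probes and negative controls were exposed for 1 h to GST-fused P. falciparum DNA-binding domains expressed in E. coli. Binding was carried out in 1× PBS with 1% milk, 0.2 mg/ml BSA, 0.5% salmon testes DNA and 0.03% Triton X-100, and protein was detected with Alexa488 anti-GST antibody and a 488 nm scan. Binding intensity is the highest Masliner-normalised natural-log median intensity across replicate spots of either probe orientation.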

Sequence	gcPBM binding intensity (ln)
CATATATATATATATTGTACACATTTTTTATAAAAA [XGTACX_site2526]	8.17 ± 0.31
TATTTGCAATATAACACACACAAAAAAAGACTCGGA [CACACA_site6891]	8.32 ± 0.54
AATTATACATTATATTGTACATATGAATAATTAAAA [XGTACX_site6829]	7.61 ± 0.54
TATATGTAATATATATGTACGTATAATATAATATTG [XGTACX_site8620]	7.93 ± 0.48
TATATAATACAAAAGGGTACATTAACATATTATATA [XGTACX_site3196]	7.76 ± 0.5
CTATTATCGGTTCCTACACACAAATATAGATGTCTA [CACACA_site7651]	7.81 ± 0.54
TTTCACATATATATGGTGCATATTTTATGTGTAAAT [GTGCAC_site9937]	9.95 ± 0.52
TTTGTAACTTCTTTCACACATATATATATATATATA [CACACA_site5603]	9.59 ± 0.42
GTGTGCAAAAATTGTTGTACATTATATATAAAAAAA [XGTACX_site3246]	9.41 ± 0.34
AACAAAAAAAAAAAATGTACATATATATAATATATT [XGTACX_site3829]	7.5 ± 0.36
CCACAAGCAGCGGAAACATGCATATGTTGAAATAAT [TGCATGCA_site610]	7.76 ± 0.73
TCATTTCACAAACACACACACACAATATATTTCCTT [CACACA_site3905]	8.09 ± 0.54
TAATAATATTATTAATGTACAAATATATATACATAT [XGTACX_site7348]	7.58 ± 0.48
TATATATATATATATTGTACCCTTTTCAAACTTCTC [XGTACX_site2812]	9.22 ± 0.29
GTTAAGAATATGTGTACACATATACATAAATACATA [CACACA_site4254]	8.09 ± 0.35
ACCTCACAAATGAATACACACAAACATATATATTTA [CACACA_site4976]	7.87 ± 0.71
AATATCATCCTTTTTTTTTATAAAATTTAAAATATA [CACACA_negctrl_site844]	7.82 ± 0.61
TATAAGAGAATATATACACACAAAAATAAATACAGT [CACACA_site5000]	8.2 ± 0.67
ATTTTATGTTGAAAGTGTACGTATTAATATGTAGAA [XGTACX_site245]	8.33 ± 0.35
TATTTTATTATACCAAGTACAAAATTTAAATATGAA [XGTACX_site5478]	7.67 ± 0.19
GGATGGAGTAGTTAAGCATAATAAATAAAATTATGT [CACACA_negctrl_site578]	7.81 ± 0.45
GTTTTAAACAAAAATTGTACAATATAATCTTCCTAT [XGTACX_site2851]	7.75 ± 0.5
ATATATATATAATTTTGTACATAATAGCAATTCTAA [XGTACX_site653]	9.06 ± 0.085

Sequence	gcPBM binding intensity (ln)
CAAAACCTTTTATGTACACACATATACATCCCACTT [CACACA_site5716]	8.17 ± 0.37
AATAGCTAGCTGTGCACACAAACATATTTTCCAAAT [CACACA_site880]	9.55 ± 0.16
AACAACTATTAATTTACACACATGTATATATTTTAC [CACACA_site3116]	8.01 ± 0.71
AAAAAAATTGGGAAAAGTACTTGCAGCTAGCTAAAA [XGTACX_site5178]	7.82 ± 0.83
TTAAAAAAAATTTCAAGTACAAAGTAATATATATAT [XGTACX_site5718]	8.96 ± 0.15
AAACAAATATAATATTGTACATATATATATATATAT [XGTACX_site3105]	9.46 ± 0.76
GGATTGATAAGTGGTACACACATATATATTATATAT [CACACA_site2866]	7.99 ± 0.2
AAATATAAAAATAGCACACATATATACCTATATATA [CACACA_site4204]	7.97 ± 0.44
GCATTGGGAATATATAGTACATATATATATATATAA [XGTACX_site2967]	7.81 ± 0.48
CAGACGCACGTATTTGCACACATTGCCACGTAATTA [CACACA_site3349]	9.79 ± 0.13
TTTTTCTTTTTCTTTTTTTCTTTTTTTTTTTTTTTC [GTGCAC_negctrl_site727]	7.58 ± 0.83
AACCATTCAACTGATGCATGCATTTAACATATAAAT [TGCATGCA_site961]	8.07 ± 0.64
CAAACAATTAAACAAACACACATATACAAGTATTTA [CACACA_site5177]	7.46 ± 0.37
TATATTTACTTATGAAGTACATATATATATATATAT [XGTACX_site5069]	9.36 ± 1
TGTTCTTTTTATACTACACACTGATAAAAAAACAAA [CACACA_site3001]	8.2 ± 0.42
TTTAAGTTTTTACTTTGTACGTATTATAATAAAATC [XGTACX_site5683]	7.94 ± 0.41
ATAATAAAAAATACAAGTACACATATTATATATATA [XGTACX_site5355]	8.68 ± 0.35
TTTAAAACCTTACATACACACAAATATATATATATA [CACACA_site677]	9.32 ± 0.24
AATGCTATCATTAATGCACACATTTAAAATTAATAT [CACACA_site3548]	11 ± 0.55
AACACAAGAACAGAACGTACACACACATATATATAT [XGTACX_site7347]	9.11 ± 0.11
AGGTGTGAGACCACGTTCACAAAATAAAATACATAA [CACACA_negctrl_site326]	7.76 ± 0.64
ACATCAAGCAGACACACACACACACCCACCCACCCA [CACACA_site8012]	8.68 ± 0.6
CAGGCACTAATAAACACACACATATAAATATAAATA [CACACA_site6320]	7.88 ± 0.4

Sequence	gcPBM binding intensity (ln)
TTTTTTTTTTTTTTTTGTACTCATACATACTATCAT [XGTACX_site3650]	8.24 ± 0.79
AATTTCTACTATTGTATGCACTTTCATACATACATA [GTGCAC_site9924]	9.525 ± 0.078
TTTATTTTCATATGAACACACATATTTATATTATAA [CACACA_site7165]	7.92 ± 0.5
TACAATCTAAGGAGCACACAAAAATGGATAAATATA [CACACA_site933]	7.88 ± 0.54
TAATAAAAGAAAAAAAGTACAGACATATTGAATTTT [XGTACX_site5044]	7.88 ± 0.64
ATACATACATATATATGTACTTATATTTTACACATT [XGTACX_site1688]	8.09 ± 0.52
GCTTGAATAATCAATAGTACACACATATAAATATAT [XGTACX_site5964]	8.12 ± 0.36
TAATATTTATAATAGTGTACACAATTATAAACTGAA [XGTACX_site8426]	8.26 ± 0.057
ACCTTATTTATTATTGCATGTGACCATCAGATGGTA [TGCATGCA_site288]	8.61 ± 0.73
TTTATTTTTTACCAAGTGCAATATATTATAATAATA	10.5 ± 0.6
TATTTATAAGTTTACGCATGCATATAATTATTAATA [TGCATGCA_site311]	7.63 ± 0.39
TTTTTTTTTTTTTTTGTGCACAATTATTTCAATTTT [GTGCAC_site9884]	10.9 ± 0.79
TTTTAAATAATTCGTAATTATAATTATGGAAAAAAG [CACACA_negctrl_site152]	7.72 ± 0.49
TGTATGTTATGTATATGTACATATCTTTGTATTTAT [XGTACX_site6920]	7.73 ± 0.41
ATTTTTTTTTTTAATACACACAATTTTGATGAAGCA [CACACA_site3157]	8 ± 0.44
ACATTACCATATAAAACACACAAACATACATACATA [CACACA_site7709]	7.95 ± 0.45
TATAATATTTGGTGCACACAAATTAACAACTGTTTA [CACACA_site3742]	11.1 ± 0.39
TTTCATAAGAGAAAGACACACAAATATATATTTATT [CACACA_site827]	7.39 ± 0.59
TATCCATGCATTTACACACACACAAAAAAAAATTCT [CACACA_site4100]	8.48 ± 0.39
ATATATATGCATAATACACACATCATATAATTAACC [CACACA_site1643]	8.37 ± 0.57
TTCATACATAGAAAATGTACATATATATATATATAT [XGTACX_site1895]	9.29 ± 0.3
AAGATATGTACTAATACACACACATATATATATATA [CACACA_site8249]	9.42 ± 0.35
AAAAAAAAAAACAATACATGCATAATATTAATAAAA [TGCATGCA_site913]	7.79 ± 0.57

Sequence	gcPBM binding intensity (ln)
TACAAAATATTTTACACACACATATAAATACAGATA [CACACA_site5447]	7.99 ± 0.34
AAAGAAAAAAAATAATGTACTTATGTATTTCAGAAA [XGTACX_site3570]	7.49 ± 0.49
TGTTTTGTTGTGTATTGTACTAATATAAATATATAA [XGTACX_site1852]	8.02 ± 0.42
TAAAAAAACGCACTCGTACACACATATTTTCTTTCT [CACACA_site3090]	9.225 ± 0.049
TTTTATGATTGACACACACACAAAAAAAAAAAAAAA [CACACA_site7860]	8 ± 0.61
TATATTTGGAAAACATGTACATATAACAATATGTAA [XGTACX_site324]	7.7 ± 0.46
AATAAAAAAGGAAACAAATTAATATATATATATATA [CACACA_negctrl_site467]	9.38 ± 0.28
AAAAAAAGAAATAATAAAAAATATATATATATATAT [GTGCAC_negctrl_site702]	9.54 ± 0.36
CGTACATAATTTTAATCACACACAAACAAACACATA [CACACA_site7947]	8.125 ± 0.078
AAGACACAAAAACACACACACATACATACATACATA [CACACA_site454]	8.13 ± 0.66
TATGTTGATGATGATAGTACATATGAGTTCAAAAAA [XGTACX_site7712]	7.97 ± 0.71
TAAATATTTATAAACACACAAATATTTATATTTATA [CACACA_site6166]	7.41 ± 0.4
TTTATTTATTAATACACACACACACGCCCACAAAAT [CACACA_site6253]	8.88 ± 0.099
AGGGACATATATATCACACACAAAAATTAGTCCCTT [CACACA_site2778]	7.66 ± 0.64
AAATAGAGAAATACAAGTACATATCAAACCAATCTA [XGTACX_site2756]	7.61 ± 0.45
TAAAAATATAGGTATACACACATATAAATATAAATA [CACACA_site7785]	7.69 ± 0.41
CTTATACATAAATTTTGTACACACAAAAAAAAAAAA [XGTACX_site2665]	8.31 ± 0.58
ATAAATATAAATATATGTACATATATATATATATAT [XGTACX_site7433]	9.38 ± 0.18
GATTTTAAAATAATTACACACTTGATTATGTCCAAA [CACACA_site3491]	7.78 ± 0.42
GAAAGGGCAGGAACTATTAATACACTGATCGATAAG [CACACA_negctrl_site1458]	8.11 ± 0.66
